# Test results from the supplement of paper PMC8728848.
# Some of the results follow.
# B1: DC-ASGPR L+GEE (Homo sapiens) (protein)
# chain: MTRTYENFQYLENKVKVQGFKNGPLPLQSLLQRLRSGPCHLLLSLGLGLLLLVIICVVGFQNSKFQRDLVTLRTDFSNFTSNTVAEIQALTSQGSSLEETIASLKAEVEGFKQERQAGVSELQEHTTQKAHLGHCPHCPSVCVPVHSEMLLRVQQLVQDLKKLTCQVATLNNNGEEASTEGTCCPVNWVEHQDSCYWFSHSGMSWAEAEKYCQLKNAHLVVINSREEQNFVQKYLGSAYTWMGLSDPEGAWKWVDGTDYATGFQNWKPGQPDDWQGHGLGGGEDCAHFHPDGRWNDDVCQRPYHWVCEAGLGQTSQESH
# Columns and labels:
# Assay in all cases: glycan array binding signal (z-score within array); higher = stronger binding
# Settings in all cases: glycan notation: IUPAC condensed, linker removed
# [1] = target: Fuc(a1-2)[Gal(a1-3)]Gal(b1-4)GlcNAc(b1-2)Man(a1-3)[Fuc(a1-2)[Gal(a1-3)]Gal(b1-4)GlcNAc(b1-2)Man(a1-6)]Man(b1-4)GlcNAc(b1-4)GlcNAc
# How it was run: (§1)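 The Consortium for Functional Glycomics database supplied 3228 glycan arrays, of which those lacking an available protein sequence were dropped. The binding signal, a within-array Z-score, was averaged across arrays of the same protein sequence and across linkers. Negative scores can be read as non-binding.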
# [2] = target: Fuc(a1-2)[Gal(a1-3)]Gal(b1-4)GlcNAc(b1-2)Man(a1-3)[Fuc(a1-2)[Gal(a1-3)]Gal(b1-4)GlcNAc(b1-2)Man(a1-6)]Man(b1-4)GlcNAc(b1-4)[Fuc(a1-6)]GlcNAc
# How it was run: as §1
# [3] = target: Fuc(a1-2)[Gal(a1-3)]Gal(b1-4)GlcNAc(b1-3)GalNAc
# How it was run: as §1
# [4] = target: Fuc(a1-2)[Gal(a1-3)]Gal(b1-4)GlcNAc(b1-3)[Fuc(a1-2)[Gal(a1-3)]Gal(b1-4)GlcNAc(b1-6)]GalNAc
# How it was run: as §1
# [5] = target: Fuc(a1-2)[Gal(a1-3)]Gal(b1-4)GlcNAc(b1-6)GalNAc
# How it was run: as §1
# [6] = target: Fuc(a1-2)[Gal(a1-3)]Gal(b1-4)[Fuc(a1-3)]Glc
# How it was run: as §1
# [7] = target: Fuc(a1-2)[Gal(a1-3)]Gal(b1-4)[Fuc(a1-3)]GlcNAc
# How it was run: as §1
# [8] = target: Fuc(a1-2)[Gal(a1-3)]Gal(b1-4)[Fuc(a1-3)]GlcNAc(b1-3)GalNAc
# How it was run: as §1
# [9] = target: Fuc(a1-2)[Gal(a1-4)]Gal(b1-4)GlcNAc
# How it was run: as §1
# [10] = target: Fuc(a1-2)[GalNAc(a1-3)]Gal
# How it was run: as §1
# [11] = target: Fuc(a1-2)[GalNAc(a1-3)]Gal(b1-3)GalNAc(a1-3)[Fuc(a1-2)]Gal(b1-4)GlcNAc
# How it was run: as §1
# [12] = target: Fuc(a1-2)[GalNAc(a1-3)]Gal(b1-3)GalNAc(b1-3)Gal(a1-4)Gal(b1-4)Glc
# How it was run: as §1
# [13] = target: Fuc(a1-2)[GalNAc(a1-3)]Gal(b1-3)GlcNAc
# How it was run: as §1
# [14] = target: Fuc(a1-2)[GalNAc(a1-3)]Gal(b1-3)GlcNAc(b1-2)Man(a1-3)[Fuc(a1-2)[GalNAc(a1-3)]Gal(b1-3)GlcNAc(b1-2)Man(a1-6)]Man(b1-4)GlcNAc(b1-4)GlcNAc
# How it was run: as §1
# [15] = target: Fuc(a1-2)[GalNAc(a1-3)]Gal(b1-3)GlcNAc(b1-2)Man(a1-3)[Fuc(a1-2)[GalNAc(a1-3)]Gal(b1-3)GlcNAc(b1-2)Man(a1-6)]Man(b1-4)GlcNAc(b1-4)[Fuc(a1-6)]GlcNAc
# How it was run: as §1
# [16] = target: Fuc(a1-2)[GalNAc(a1-3)]Gal(b1-3)GlcNAc(b1-3)GalNAc
# How it was run: as §1
# [17] = target: Fuc(a1-2)[GalNAc(a1-3)]Gal(b1-3)GlcNAc(b1-6)GalNAc
# How it was run: as §1
# [18] = target: Fuc(a1-2)[GalNAc(a1-3)]Gal(b1-4)Glc
# How it was run: as §1
# [19] = target: Fuc(a1-2)[GalNAc(a1-3)]Gal(b1-4)GlcNAc
# How it was run: as §1
# [20] = target: Fuc(a1-2)[GalNAc(a1-3)]Gal(b1-4)GlcNAc(b1-2)Man
# How it was run: as §1
# [21] = target: Fuc(a1-2)[GalNAc(a1-3)]Gal(b1-4)GlcNAc(b1-2)Man(a1-3)[Fuc(a1-2)[GalNAc(a1-3)]Gal(b1-4)GlcNAc(b1-2)Man(a1-6)]Man(b1-4)GlcNAc(b1-4)GlcNAc
# How it was run: as §1
# [22] = target: Fuc(a1-2)[GalNAc(a1-3)]Gal(b1-4)GlcNAc(b1-2)Man(a1-3)[Fuc(a1-2)[GalNAc(a1-3)]Gal(b1-4)GlcNAc(b1-2)Man(a1-6)]Man(b1-4)GlcNAc(b1-4)[Fuc(a1-6)]GlcNAc
# How it was run: as §1
# [23] = target: Fuc(a1-2)[GalNAc(a1-3)]Gal(b1-4)GlcNAc(b1-3)Gal(b1-4)GlcNAc
# How it was run: as §1
# [24] = target: Fuc(a1-2)[GalNAc(a1-3)]Gal(b1-4)GlcNAc(b1-3)Gal(b1-4)GlcNAc(b1-3)Gal(b1-4)GlcNAc
# How it was run: as §1
# [25] = target: Fuc(a1-2)[GalNAc(a1-3)]Gal(b1-4)GlcNAc(b1-3)GalNAc
# How it was run: as §1
# [26] = target: Fuc(a1-2)[GalNAc(a1-3)]Gal(b1-4)GlcNAc(b1-3)[Fuc(a1-2)[GalNAc(a1-3)]Gal(b1-4)GlcNAc(b1-6)]GalNAc
# How it was run: as §1
# [27] = target: Fuc(a1-2)[GalNAc(a1-3)]Gal(b1-4)GlcNAc(b1-6)GalNAc
# How it was run: as §1
# [28] = target: Fuc(a1-2)[GalNAc(a1-3)]Gal(b1-4)[Fuc(a1-3)]GlcNAc
# How it was run: as §1
# [29] = target: Fuc(a1-2)[GalNAc(a1-3)]Gal(b1-4)[Fuc(a1-3)]GlcNAc(b1-3)GalNAc
# How it was run: as §1
# [30] = target: Fuc(a1-2)[GalNAc(a1-4)]Gal(b1-4)GlcNAc
# How it was run: as §1
# [31] = target: Fuc(a1-2)[GalNAc(b1-3)]Gal
# How it was run: as §1
# [32] = target: Fuc(a1-3)GlcNAc
# How it was run: as §1
# [33] = target: Fuc(a1-3)[Gal(b1-4)]Glc6S
# How it was run: as §1
# [34] = target: Fuc(a1-3)[Gal(b1-4)]GlcNAc
# How it was run: as §1
# [35] = target: Fuc(a1-3)[Gal(b1-4)]GlcNAc(b1-2)Man
# How it was run: as §1
# [36] = target: Fuc(a1-3)[Gal(b1-4)]GlcNAc(b1-2)Man(a1-3)[Fuc(a1-3)[Gal(b1-4)]GlcNAc(b1-2)Man(a1-6)]Man(b1-4)GlcNAc(b1-4)GlcNAc
# How it was run: as §1
# [37] = target: Fuc(a1-3)[Gal(b1-4)]GlcNAc(b1-2)Man(a1-3)[Fuc(a1-3)[Gal(b1-4)]GlcNAc(b1-2)Man(a1-6)]Man(b1-4)GlcNAc(b1-4)[Fuc(a1-6)]GlcNAc
# How it was run: as §1
# [38] = target: Fuc(a1-3)[Gal(b1-4)]GlcNAc(b1-3)Gal(b1-3)[Fuc(a1-4)]GlcNAc
# How it was run: as §1
# [39] = target: Fuc(a1-3)[Gal(b1-4)]GlcNAc(b1-3)Gal(b1-4)[Fuc(a1-3)]GlcNAc
# How it was run: as §1
# [40] = target: Fuc(a1-3)[Gal(b1-4)]GlcNAc(b1-3)Gal(b1-4)[Fuc(a1-3)]GlcNAc(b1-3)Gal(b1-4)[Fuc(a1-3)]GlcNAc
# How it was run: as §1
# [41] = target: Fuc(a1-3)[Gal(b1-4)]GlcNAc(b1-3)GalNAc
# How it was run: as §1
# [42] = target: Fuc(a1-3)[Gal(b1-4)]GlcNAc(b1-6)GalNAc
# How it was run: as §1
# [43] = target: Fuc(a1-3)[Gal(b1-4)]GlcNAc(b1-6)[Gal(b1-3)GlcNAc(b1-3)]Gal(b1-4)Glc
# How it was run: as §1
# [44] = target: Fuc(a1-3)[Gal(b1-4)]GlcNAc6S
# How it was run: as §1
# [45] = target: Fuc(a1-3)[Gal3S(b1-4)]Glc
# How it was run: as §1
binder,measurement,setting,value
B1,glycan array binding signal (z-score),[1],-0.117
same,glycan array binding signal (z-score),[2],-0.55
same,glycan array binding signal (z-score),[3],-0.186
same,glycan array binding signal (z-score),[4],-0.209
same,glycan array binding signal (z-score),[5],-0.492
same,glycan array binding signal (z-score),[6],-0.25
same,glycan array binding signal (z-score),[7],-0.011
same,glycan array binding signal (z-score),[8],-0.328
same,glycan array binding signal (z-score),[9],-0.403
same,glycan array binding signal (z-score),[10],0.708
same,glycan array binding signal (z-score),[11],0.525
same,glycan array binding signal (z-score),[12],-0.233
same,glycan array binding signal (z-score),[13],0.993
same,glycan array binding signal (z-score),[14],1.19
same,glycan array binding signal (z-score),[15],0.89
same,glycan array binding signal (z-score),[16],0.253
same,glycan array binding signal (z-score),[17],1.35
same,glycan array binding signal (z-score),[18],1.44
same,glycan array binding signal (z-score),[19],0.538
same,glycan array binding signal (z-score),[20],0.54
same,glycan array binding signal (z-score),[21],1.08
same,glycan array binding signal (z-score),[22],0.775
same,glycan array binding signal (z-score),[23],-0.799
same,glycan array binding signal (z-score),[24],-0.097
same,glycan array binding signal (z-score),[25],-0.176
same,glycan array binding signal (z-score),[26],1.6
same,glycan array binding signal (z-score),[27],3.41
same,glycan array binding signal (z-score),[28],-0.079
same,glycan array binding signal (z-score),[29],-0.572
same,glycan array binding signal (z-score),[30],2.59
same,glycan array binding signal (z-score),[31],3.61
same,glycan array binding signal (z-score),[32],-0.476
same,glycan array binding signal (z-score),[33],-0.597
same,glycan array binding signal (z-score),[34],-0.165
same,glycan array binding signal (z-score),[35],-0.482
same,glycan array binding signal (z-score),[36],-0.506
same,glycan array binding signal (z-score),[37],-0.226
same,glycan array binding signal (z-score),[38],-0.793
same,glycan array binding signal (z-score),[39],0.074
same,glycan array binding signal (z-score),[40],-0.523
same,glycan array binding signal (z-score),[41],-0.225
same,glycan array binding signal (z-score),[42],-0.101
same,glycan array binding signal (z-score),[43],-0.363
same,glycan array binding signal (z-score),[44],0.007
same,glycan array binding signal (z-score),[45],-0.257
